Positions count from the first letter of the chain named. The list shows a part of the results.

For 22 molecules, binding signal results are on record in paper PMC12136788.

First the molecules themselves.
T1: UNK ZnF1-3 (human, UniProt Q9C0B0 31-174)
T1 sequence: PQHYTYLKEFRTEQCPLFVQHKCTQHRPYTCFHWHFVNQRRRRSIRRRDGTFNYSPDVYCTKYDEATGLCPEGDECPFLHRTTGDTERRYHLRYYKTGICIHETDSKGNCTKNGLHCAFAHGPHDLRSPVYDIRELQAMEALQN

B1: chr5:24309113:24309114:-_ENSMUSG00000028945_ENSMUST00000030787|mus_hu|FALSE|FALSE (ssRNA)
RNA: GGGAGUUCUACAGUCCGACGAUCUUUUAUUUACAAGUAUACAUUUAACACAAUGAAAUAAACACUGAUAUACUGAAGCCUAGUUAAUAGUAGUGUAACAAUAUGCAUCAUUUUGAUGAUUACAUUAUUUUAAACAACAAACUACAACAGAGGAUUGAGCAUCA
B2: chr2:198351390:198351391:-_ENSG00000144381_ENST00000345042|hu_hu|hu_hu_hu_mus_False|18_48 (ssRNA)
RNA: GGGAGUUCUACAGUCCGACGAUCUCAUUCCCACCCUCCACAGAAAGGCUGCUUCUGAACUCUCAUGUGGUGACACAGCGCUACAGUCCUGAUUUUAACAGAACAGUAGAGAUGCCUCCUCAGUGAUAGUUGAAAGCAGGACACCAACAGAGGAUUGAGCAUCA
B3: chr4:144460044:144460045:+_ENSG00000153147_ENST00000283131|hu_mus|hu_hu_hu_mus_False|8_8 (ssRNA)
RNA: GGGAGUUCUACAGUCCGACGAUCACGGUCCAUAGCCUGAAGAUCAACUUGCGGAUUCCAAUCUGAGUCAUAUAAAAUGACUACAUCAGCAGUUGCAAGAUUGAUGCCCAGACCACCAGCACGUGUGCUUAACAUGAAUACAAACAACAGAGGAUUGAGCAUCA
B4: 57657005_57657125_91_3pUTR_ENSMUSG00000062949_ENSMUST00000101527|mouse|control|control (ssRNA)
RNA: GGGAGUUCUACAGUCCGACGAUCUCGCGUCCGAGGCUGCGGGGUGCCAGGCUGGGCUCCGCUGGGCUGUCUGGGAAGGCGCCGUCCACAAAACACACUGCGGCGUGGGCCCGCGGCGCAAAGCGGACAGCUAGCUCGCCUGCCCAACAGAGGAUUGAGCAUCA
B5: chr9:7834011:7834012:-_ENSMUSG00000057367_ENSMUST00000074246|mus_mus|FALSE|FALSE (ssRNA)
RNA: GGGAGUUCUACAGUCCGACGAUCCAUGGCAUAGCUGCAGGGAUCCAUCCUUGAUGAGAAGUCUUCCACUGCUCUAGAAUUAAGAGGGCUAGAGCACAGGUUGGAGUGAAUGCCACCUCGUUCCAGAGGUGACGAAUGUGCAAACAACAGAGGAUUGAGCAUCA
B6: chr2:24646365:24646366:-_ENSMUSG00000036893_ENSMUST00000102938|mus_hu|FALSE|FALSE (ssRNA)
RNA: GGGAGUUCUACAGUCCGACGAUCUUAUUGAUUUCAUUGGAAACAGAACAAGAAAUGGUCAGAGCCAAAAGACUGCUCUUAAAACUGUCAAAAACAUUUUAACAGAAAAAAAUAAACAUGACUGCAUUAUGAAUGUUUUUAGAACAACAGAGGAUUGAGCAUCA
B7: chr4:140556289:140556290:+_ENSMUSG00000036622_ENSMUST00000037055|mus_mus|mus_mus_mus_hu_False|8_28 (ssRNA)
RNA: GGGAGUUCUACAGUCCGACGAUCGAUGGAGCUCACCAGGCCCCCUUUUGCCGUGCAGAACCCUGUGCGGGUCACCACUGCCAGGACGUGCGGUCCCACAUAGGCCCGGGCCUGCAGGAUGAGGGUCCCACAGAAGAGUGUGUGCAACAGAGGAUUGAGCAUCA
B8: 10437852_10437972_582_CDS_ENSMUSG00000027534_ENSMUST00000029047|mouse|control|control (ssRNA)
RNA: GGGAGUUCUACAGUCCGACGAUCUGUAGGUGUUGAAGGUCUGUCUUCCCAGUUCACUGCCUCAGGAUGCUGCUCUUCAGCCUCUCUUGGUCUAGCAGAAUACUCAAUGGAUGAAUCUGUCCCUGUAAAUUUAGUCCUAAUGAGCAACAGAGGAUUGAGCAUCA
B9: chr7:151048522:151048523:+_ENSG00000013374_ENST00000566856|hu_mus|hu_hu_hu_mus_True|8_28 (ssRNA)
RNA: GGGAGUUCUACAGUCCGACGAUCCUGUUUCUUAUUUAUUACGAUCUUGAUGUAAUUUUCUUGAAAUCCGAAAGUUUCAGCUAUUUGACACCUCAGGUCUCUACCAGUGAUGUGCAAGCGGGUCUCCAACAAGUUUUUCUUAUCCAACAGAGGAUUGAGCAUCA
B10: chr7:140404665:140404666:+_ENSG00000090266_ENST00000247866|hu_hu|hu_hu_hu_mus_False|1_88 (ssRNA)
RNA: GGGAGUUCUACAGUCCGACGAUCUGCUCCUACUCGUCCAGAGAGUUUACACCUUCAGUCCUCGUCAUCAGGAGGGAUUCCCAGUUCUUCAUCUGUCCACUGUGAAGGAUCUGGAUAUGAAAAGUGACCCAGCACAGCUUCUGACAACAGAGGAUUGAGCAUCA
B11: chr7:75932113:75932114:+_ENSG00000106211_ENST00000248553|hu_hu|hu_hu_hu_mus_False|38_88 (ssRNA)
RNA: GGGAGUUCUACAGUCCGACGAUCCUGCGACCACUCAUCGGGCAACCGGGGCAGCCCGAAAGCUUGAUCGAAGAGGCGGCUGUGUGCAGGGUACCAGCGGAAGGGGUGUUCCCAGCUCGGGCUCCGCAGCAGCGAGAAGGGCACCAACAGAGGAUUGAGCAUCA
B12: 57396970_57398484_344_3pUTR_ENSMUSG00000032306_ENSMUST00000034856|mouse|control|control (ssRNA)
RNA: GGGAGUUCUACAGUCCGACGAUCCUUCUCUGCCAGCUCCUUGUUAGGGUGUGCCUGGAUAGACAGGGCCGUGUCCACUGACAGUACUUUGAAGAGGAAGGGCAGCUUUCCAUUAAAGGUGUUUUUGACCUUUGAGCCCAAGCACAACAGAGGAUUGAGCAUCA
B13: chr1:39494564:39494565:+_ENSG00000168653_ENST00000372967|hu_hu|hu_hu_hu_mus_True|58_88 (ssRNA)
RNA: GGGAGUUCUACAGUCCGACGAUCAUGCAUUCGCCUCAUCGUUUUGUGCCGAAGCAAGCACUCUUCGAAGUCAUCGAAUUCUAUCUUGCACUCCUUUUUCGCCCGGGUCCCACCGAUCCCGUGUGCACACUCUAUCCACUCUUUCAACAGAGGAUUGAGCAUCA
B14: chr12:39756943:39756944:-_ENSG00000139116_ENST00000544797|hu_mus|hu_hu_hu_mus_False|1_1 (ssRNA)
RNA: GGGAGUUCUACAGUCCGACGAUCGGUUUGGCUGUUACCCCCAAGGGAAUCCUGCAAGAGUCUUGUCAGCUUAGAGUCUCUGUAAGGGACAUGGGUGGCUCUCUUGCUCUUGUCCCCCAAGGCGCUGAUUACAUUCCCAAGUGCCAACAGAGGAUUGAGCAUCA
B15: chr12:39756943:39756944:-_ENSG00000139116_ENST00000544797|hu_mus|hu_hu_hu_mus_False|48_68 (ssRNA)
RNA: B14 RNA with A72G, G75A, G93U, U141A
B16: 148938904_148939024_1092_3pUTR_ENSMUSG00000028988_ENSMUST00000030839|mouse|control|control (ssRNA)
RNA: GGGAGUUCUACAGUCCGACGAUCGGAAACCAAACCCGCAUCUUACUGCCAAUCAAAUCCAAACACAAACCCACUACGUGAAGGCAGCAGCCAGCUCUUUGUGUAAUAAAUAUUGCAAAGCUCACUUCAUUUCUUUCUUUCUUUCAACAGAGGAUUGAGCAUCA
B17: chr10:112343607:112343608:+_ENSG00000108055_ENST00000361804|hu_mus|FALSE|FALSE (ssRNA)
RNA: GGGAGUUCUACAGUCCGACGAUCUUCUAUUUUUUCAAGCAGCUUCUGCCUCUCUUUUAAUAAACGUUUCCGCUGUUCACUGUUGCCCGCCAGCUCAUCUUGUAAAUCCUUGGCUUUAAGCUCCAACUUGGUCCUUUGCUUAAUCAACAGAGGAUUGAGCAUCA
B18: chr4:141302222:141302223:+_ENSG00000153130_ENST00000394201|hu_mus|motif|central (ssRNA)
RNA: GGGAGUUCUACAGUCCGACGAUCCCUUUUGCUUUUUGUAUCAGUUGUUUGAAAAACACUAGAAGCAGACAUGAGGUUUUCGGUAUAUUGUCCGAGAACUUGAUUUUCCGACUUUAGCUUCAGAUUUUCUUCCUUAACUGCAUCCAACAGAGGAUUGAGCAUCA
B19: chr8:117878989:117878990:-_ENSG00000164754_ENST00000297338|hu_hu|hu_hu_hu_mus_True|18_68 (ssRNA)
RNA: GGGAGUUCUACAGUCCGACGAUCCCAGAGGCCCUCGUUUACUGAGGACAAAAUGUGCGUAGAACAUUGUUCUGGCUUGCUAUGAAAUAAGAAGAAACCUGGAUCUCGGCGGGGAGCUUGGGCGGGCGGGUGGCCCGGGGAGGGCAACAGAGGAUUGAGCAUCA
B20: chr3:95657547:95657548:-_ENSMUSG00000015748_ENSMUST00000015892|mus_mus|FALSE|FALSE (ssRNA)
RNA: GGGAGUUCUACAGUCCGACGAUCUUAGACAGCGCCAUUUCGGAGAAAAUGGAGAAUGAGAGCUCCAAUGGGACAAAAAAACUACACCUCACAAACUUCAGCCCCUGAGACGGAGCCCGAACGUUACACCGGAACCGGAAACCUCAACAGAGGAUUGAGCAUCA
B21: 49196445_49197903_1304_3pUTR_ENSG00000196396_ENST00000371621|human|control|control (ssRNA)
RNA: GGGAGUUCUACAGUCCGACGAUCUUCUCGGGCAGUGACGGCUCCCCUUUGGCUGGGGAGGCAGCCUGGGCACCUCGAAGACUUCCCCCCACGACCCGACUUCUAACUUCAGUGUCUUGACUCAUGCUUUCGAUGCCGUAGGGUCAACAGAGGAUUGAGCAUCA
B22: chr1:39494564:39494565:+_ENSG00000168653_ENST00000372967|hu_hu|hu_hu_hu_mus_True|8_28 (ssRNA)
RNA: B13 RNA with G47A, U78C, C108A, C109U, C110A, C129U

The assay has as its target T1, UNK ZnF1-3. The assay is described as follows: nsRBNS (natural sequence RNA bind-n-seq); RBNS binding buffer (assumed for nsRBNS): 25 mM Tris pH 7.5, 150 mM KCl, 3 mM MgCl2, 0.01% Triton X-100, 500 ug/ml BSA, 20 U/ml SUPERase-In, 4 C; UNK is unkempt and MSI1 is Musashi-1; names of the RNAs are library labels; protein concentration not given here; high values mean tight binding.
Molecule B1 came in with a binding signal of 0.582 enrichment R.

Take B2: the binding signal amounted to 0.941 enrichment R.

For B3, the binding signal is 0.87 enrichment R.

B4 registered a binding signal of 0.796 enrichment R.

The molecule B5 yielded a binding signal of 1.1 enrichment R.

Consider B6, for which the binding signal is 0.985 enrichment R.

B7 yielded a binding signal of 1.26 enrichment R.

Take B8: the binding signal came to 0.659 enrichment R.

B9 returned a binding signal of 0.63 enrichment R.

For the molecule B10, the binding signal amounted to 1.12 enrichment R.

Consider B11, for which the binding signal worked out at 1.53 enrichment R.

For B12, the binding signal was determined as 1.68 enrichment R.

On to B13, for which the binding signal worked out at 0.633 enrichment R.

B14 returned a binding signal of 0.624 enrichment R.

Molecule B15 displayed a binding signal of 0.719 enrichment R.

B16 registered a binding signal of 1.58 enrichment R.

B17 registered a binding signal of 0.317 enrichment R.

For the molecule B18, the binding signal came out at 0.531 enrichment R.

B19 displayed a binding signal of 0.82 enrichment R.

B20 showed a binding signal of 1.64 enrichment R.

For B21, the binding signal was 0.605 enrichment R.

Molecule B22 gave a binding signal of 0.589 enrichment R.
